Measured values reported in EPA's CvTdb concentration-time database.
This continues a long series; more values of the same kind are listed elsewhere.

Experiments:
Rat [1] = experiment: concentration in liver after dosing; details: 2880 h; dosed: 3,3',4,4',5-pentachlorobiphenyl; 1000 mg/kg; oral; Female; Harlan Sprague Dawley
Rat [2] = experiment: concentration in liver after dosing; details: 768 h; dosed: 3,3',4,4',5-pentachlorobiphenyl; 1000 mg/kg; oral; Female; Harlan Sprague Dawley
Rat [3] = experiment: concentration in liver after dosing; details: 6000 h; dosed: 3,3',4,4',5-pentachlorobiphenyl; 1000 mg/kg; oral; Female; Harlan Sprague Dawley
Rat [4] = experiment: concentration in liver after dosing; details: 2 h; dosed: 3,3',4,4',5-pentachlorobiphenyl; 1000 mg/kg; oral; Female; F344
Rat [5] = experiment: concentration in liver after dosing; details: 6744 h; dosed: 3,3',4,4',5-pentachlorobiphenyl; 1000 mg/kg; oral; Female; Harlan Sprague Dawley
Rat [6] = experiment: concentration in liver after dosing; details: 3 h; dosed: 3,3',4,4',5-pentachlorobiphenyl; 1000 mg/kg; oral; Female; F344
Rat [7] = experiment: concentration in liver after dosing; details: 8760 h; dosed: 3,3',4,4',5-pentachlorobiphenyl; 1000 mg/kg; oral; Male; Harlan Sprague Dawley
Rat [8] = experiment: concentration in liver after dosing; details: 16 h; dosed: 3,3',4,4',5-pentachlorobiphenyl; 1000 mg/kg; oral; Female; F344
Rat [9] = experiment: concentration in liver after dosing; details: 120 h; dosed: 3,3',4,4',5-pentachlorobiphenyl; 1000 mg/kg; oral; Female; Harlan Sprague Dawley
Rat [10] = experiment: concentration in plasma after dosing; details: 8184 h; dosed: 3,3',4,4',5-pentachlorobiphenyl; 1000 mg/kg; oral; Male; Harlan Sprague Dawley
Rat [11] = experiment: concentration in liver after dosing; details: 3984 h; dosed: 3,3',4,4',5-pentachlorobiphenyl; 1000 mg/kg; oral; Male; F344
Rat [12] = experiment: concentration in liver after dosing; details: 1464 h; dosed: 3,3',4,4',5-pentachlorobiphenyl; 1000 mg/kg; oral; Female; Harlan Sprague Dawley
Rat [13] = experiment: concentration in liver after dosing; details: 1464 h; dosed: 3,3',4,4',5-pentachlorobiphenyl; 1000 mg/kg; oral; Female; Harlan Sprague Dawley; remark: listed apart in the source
Rat [14] = experiment: concentration in plasma after dosing; details: 8184 h; dosed: 3,3',4,4',5-pentachlorobiphenyl; 1000 mg/kg; oral; Male; Harlan Sprague Dawley; remark: listed apart in the source
Rat [15] = experiment: concentration in liver after dosing; details: 8 h; dosed: 3,3',4,4',5-pentachlorobiphenyl; 1000 mg/kg; oral; Female; F344
Rat [16] = experiment: concentration in plasma after dosing; details: 0.5 h; dosed: alpha/beta-Thujone mixture; 25 mg/kg; oral; Female; F344
Rat [17] = experiment: concentration in plasma after dosing; details: 5 min; dosed: alpha/beta-Thujone mixture; 50 mg/kg; oral; Female; F344
Rat [18] = experiment: concentration in plasma after dosing; details: 12 h; dosed: alpha/beta-Thujone mixture; 25 mg/kg; oral; Male; F344
Rat [19] = experiment: concentration in brain after dosing; details: 2 h; dosed: 76231-76-0; 3.0 mg/kg; iv; Male; F344
Rat [20] = experiment: concentration in plasma after dosing; details: 0.5 h; dosed: alpha/beta-Thujone mixture; 50 mg/kg; oral; Male; F344
Rat [21] = experiment: concentration in plasma after dosing; details: 6 h; dosed: alpha/beta-Thujone mixture; 50 mg/kg; oral; Female; F344
Rat [22] = experiment: concentration in brain after dosing; details: 1.5 h; dosed: alpha/beta-Thujone mixture; 25 mg/kg; oral; Female; F344
Rat [23] = experiment: concentration in plasma after dosing; details: 1.5 h; dosed: 76231-76-0; 3.0 mg/kg; iv; Female; F344
Rat [24] = experiment: concentration in brain after dosing; details: 0.5 h; dosed: 76231-76-0; 3.0 mg/kg; iv; Female; F344
Rat [25] = experiment: concentration in plasma after dosing; details: 10 min; dosed: 76231-76-0; 3.0 mg/kg; iv; Male; F344
Rat [26] = experiment: concentration in brain after dosing; details: 12 h; dosed: alpha/beta-Thujone mixture; 50 mg/kg; oral; Female; F344
Rat [27] = experiment: concentration in brain after dosing; details: 6 h; dosed: alpha/beta-Thujone mixture; 25 mg/kg; oral; Male; F344
Rat [28] = experiment: concentration in brain after dosing; details: 20 min; dosed: 76231-76-0; 3.0 mg/kg; iv; Male; F344
Rat [29] = experiment: concentration in brain after dosing; details: 10 min; dosed: alpha/beta-Thujone mixture; 50 mg/kg; oral; Male; F344
Rat [30] = experiment: concentration in plasma after dosing; details: 0.25 h; dosed: 76231-76-0; 3.0 mg/kg; iv; Female; F344
Rat [31] = experiment: concentration in plasma after dosing; details: 2 h; dosed: 76231-76-0; 3.0 mg/kg; iv; Male; F344
Rat [32] = experiment: concentration in brain after dosing; details: 1.5 h; dosed: alpha/beta-Thujone mixture; 50 mg/kg; oral; Male; F344
Rat [33] = experiment: concentration in plasma after dosing; details: 1.5 h; dosed: 76231-76-0; 3.0 mg/kg; iv; Female; F344; remark: listed apart in the source
Rat [34] = experiment: concentration in plasma after dosing; details: 8 h; dosed: 76231-76-0; 3.0 mg/kg; iv; Male; F344
Rat [35] = experiment: concentration in brain after dosing; details: 0.75 h; dosed: 76231-76-0; 3.0 mg/kg; iv; Female; F344
Rat [36] = experiment: concentration in plasma after dosing; details: 10 min; dosed: alpha/beta-Thujone mixture; 25 mg/kg; oral; Female; F344
Rat [37] = experiment: concentration in plasma after dosing; details: 5 min; dosed: alpha/beta-Thujone mixture; 25 mg/kg; oral; Male; F344
Rat [38] = experiment: concentration in brain after dosing; details: 0.5 h; dosed: alpha/beta-Thujone mixture; 25 mg/kg; oral; Female; F344

Clc1ccc(-c2cc(Cl)c(Cl)c(Cl)c2)cc1Cl [3,3',4,4',5-pentachlorobiphenyl]
Details | concentration in liver [pg/g] | concentration in plasma [pg/mL]
Rat [1] | 2260 | –
Rat [2] | 5790 | –
Rat [3] | 762 | –
Rat [4] | 3820 | –
Rat [5] | 1170 | –
Rat [6] | 7700 | –
Rat [7] | 468 | –
Rat [8] | 18700 | –
Rat [9] | 8550 | –
Rat [10] | – | 23.3
Rat [11] | 2180 | –
Rat [12] | 4680 | –
Rat [13] | 2970 | –
Rat [14] | – | 34.9
Rat [15] | 15500 | –

CC(C)[C@]12CC(=O)[C@H](C)[C@H]1C2 [alpha-Thujone]
Details | concentration in brain [ng/g] | concentration in plasma [ng/mL]
Rat [16] | – | 270
Rat [17] | – | 172
Rat [18] | – | 15.1
Rat [19] | 45.4 | –
Rat [20] | – | 299
Rat [21] | – | 171
Rat [22] | 492 | –
Rat [23] | – | 12.2
Rat [24] | 322 | –
Rat [25] | – | 422
Rat [26] | 51 | –
Rat [27] | 23.1 | –
Rat [28] | 836 | –
Rat [29] | 1220 | –
Rat [30] | – | 241
Rat [31] | – | 28.5
Rat [32] | 974 | –
Rat [33] | – | 16.2
Rat [34] | – | 14.7
Rat [35] | 177 | –
Rat [36] | – | 756
Rat [37] | – | 271
Rat [38] | 1020 | –
